# The other results are listed elsewhere or left out.
# B1: TIM1 (protein)
# chain: ADGIQSVKVGGEAGPSVTLPCHYSGAVTSMCWNRGSCSLFTCQNGIVWTNGTHVTYRKDTRYKLLGDLSRRDVSLTIENTAVSDSGVYCCRVEHRGWFNDMKITVSLEIVPPHHHHHH
# Tests used:
# Experiment in all cases: glycan array binding signal (z-score within array); higher = stronger binding
# Conditions in all cases: glycan notation: IUPAC condensed, linker removed
# [1] = molecular target: Neu5Ac(a2-6)GlcNAc(b1-4)GlcNAc(b1-4)GlcNAc
# Procedure, shortened: (§1)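 Arrays were curated from the Consortium for Functional Glycomics database, 3228 in total, and kept only where the protein sequence was available. Binding is expressed as a within-array Z-score. This score was averaged across arrays of the same protein sequence at different concentrations or buffers and across linkers, and negative values can be read as non-binding.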
# [2] = molecular target: Neu5Ac(a2-8)Neu5Ac
# Procedure, shortened: as §1
# [3] = molecular target: Neu5Ac(a2-8)Neu5Ac(a2-3)Gal(b1-3)GalNAc(b1-4)[Neu5Ac(a2-3)]Gal(b1-4)Glc
# Procedure, shortened: as §1
# [4] = molecular target: Neu5Ac(a2-8)Neu5Ac(a2-3)Gal(b1-3)GalNAc(b1-4)[Neu5Ac(a2-8)Neu5Ac(a2-3)]Gal(b1-4)Glc
# Procedure, shortened: as §1
# [5] = molecular target: Neu5Ac(a2-8)Neu5Ac(a2-3)Gal(b1-4)Glc
# Procedure, shortened: as §1
# [6] = molecular target: Neu5Ac(a2-8)Neu5Ac(a2-3)Gal(b1-4)GlcNAc
# Procedure, shortened: as §1
# [7] = molecular target: Neu5Ac(a2-8)Neu5Ac(a2-3)[Gal(b1-3)GalNAc(b1-4)]Gal(b1-4)Glc
# Procedure, shortened: as §1
# [8] = molecular target: Neu5Ac(a2-8)Neu5Ac(a2-3)[GalNAc(b1-4)]Gal(b1-4)Glc
# Procedure, shortened: as §1
# [9] = molecular target: Neu5Ac(a2-8)Neu5Ac(a2-8)Neu5Ac
# Procedure, shortened: as §1
# [10] = molecular target: Neu5Ac(a2-8)Neu5Ac(a2-8)Neu5Ac(a2-3)Gal(b1-4)Glc
# Procedure, shortened: as §1
# [11] = molecular target: Neu5Ac(a2-8)Neu5Ac(a2-8)Neu5Ac(a2-3)[Gal(b1-3)GalNAc(b1-4)]Gal(b1-4)Glc
# Procedure, shortened: as §1
# [12] = molecular target: Neu5Ac(a2-8)Neu5Ac(a2-8)Neu5Ac(a2-3)[GalNAc(b1-4)]Gal(b1-4)Glc
# Procedure, shortened: as §1
# [13] = molecular target: Neu5Ac(a2-8)Neu5Ac(a2-8)Neu5Ac(a2-8)Neu5Ac(a2-3)[GalNAc(b1-4)]Gal(b1-4)Glc
# Procedure, shortened: as §1
# [14] = molecular target: Neu5Ac(a2-8)Neu5Gc(a2-3)Gal(b1-4)GlcNAc
# Procedure, shortened: as §1
# [15] = molecular target: Neu5Ac(b2-6)Gal(b1-4)GlcNAc
# Procedure, shortened: as §1
# [16] = molecular target: Neu5Ac(b2-6)GalNAc
# Procedure, shortened: as §1
# [17] = molecular target: Neu5Ac9Ac(a2-3)Gal(b1-3)GlcNAc
# Procedure, shortened: as §1
# [18] = molecular target: Neu5Ac9Ac(a2-3)Gal(b1-4)GlcNAc
# Procedure, shortened: as §1
# [19] = molecular target: Neu5Ac9Ac(a2-6)Gal(b1-4)GlcNAc
# Procedure, shortened: as §1
# [20] = molecular target: Neu5Gc(a2-3)Gal(b1-3)GlcNAc
# Procedure, shortened: as §1
# [21] = molecular target: Neu5Gc(a2-3)Gal(b1-3)[Fuc(a1-4)]GlcNAc
# Procedure, shortened: as §1
# [22] = molecular target: Neu5Gc(a2-3)Gal(b1-4)Glc
# Procedure, shortened: as §1
# [23] = molecular target: Neu5Gc(a2-3)Gal(b1-4)GlcNAc
# Procedure, shortened: as §1
# [24] = molecular target: Neu5Gc(a2-3)Gal(b1-4)GlcNAc(b1-3)Gal(b1-4)GlcNAc(b1-2)Man(a1-3)[Neu5Gc(a2-3)Gal(b1-4)GlcNAc(b1-3)Gal(b1-4)GlcNAc(b1-2)Man(a1-6)]Man(b1-4)GlcNAc(b1-4)GlcNAc
# Procedure, shortened: as §1
# [25] = molecular target: Neu5Gc(a2-3)Gal(b1-4)[Fuc(a1-3)]GlcNAc
# Procedure, shortened: as §1
# [26] = molecular target: Neu5Gc(a2-6)Gal(b1-4)GlcNAc
# Procedure, shortened: as §1
# [27] = molecular target: Neu5Gc(a2-6)GalNAc
# Procedure, shortened: as §1
# [28] = molecular target: Neu5Gc(a2-8)Neu5Ac(a2-3)Gal(b1-4)GlcNAc
# Procedure, shortened: as §1
# [29] = molecular target: Neu5Gc(a2-8)Neu5Gc(a2-3)Gal(b1-4)GlcNAc
# Procedure, shortened: as §1
# [30] = molecular target: Neu5Gc(a2-8)Neu5Gc(a2-3)Gal(b1-4)GlcNAc(b1-3)Gal(b1-4)GlcNAc
# Procedure, shortened: as §1
# [31] = molecular target: Neu5Gc(a2-8)Neu5Gc(a2-6)Gal(b1-4)GlcNAc
# Procedure, shortened: as §1
# [32] = molecular target: Neu5Gc(b2-6)Gal(b1-4)GlcNAc
# Procedure, shortened: as §1
binder,measurement,setting,value
B1,glycan array binding signal (z-score),[1],-0.254
same,glycan array binding signal (z-score),[2],-0.103
same,glycan array binding signal (z-score),[3],-0.24
same,glycan array binding signal (z-score),[4],-0.158
same,glycan array binding signal (z-score),[5],-0.235
same,glycan array binding signal (z-score),[6],-0.2
same,glycan array binding signal (z-score),[7],-0.133
same,glycan array binding signal (z-score),[8],-0.183
same,glycan array binding signal (z-score),[9],-0.229
same,glycan array binding signal (z-score),[10],-0.195
same,glycan array binding signal (z-score),[11],-0.197
same,glycan array binding signal (z-score),[12],-0.281
same,glycan array binding signal (z-score),[13],-0.224
same,glycan array binding signal (z-score),[14],-0.244
same,glycan array binding signal (z-score),[15],-0.075
same,glycan array binding signal (z-score),[16],-0.287
same,glycan array binding signal (z-score),[17],-0.192
same,glycan array binding signal (z-score),[18],-0.213
same,glycan array binding signal (z-score),[19],-0.035
same,glycan array binding signal (z-score),[20],-0.177
same,glycan array binding signal (z-score),[21],-0.216
same,glycan array binding signal (z-score),[22],0.036
same,glycan array binding signal (z-score),[23],-0.213
same,glycan array binding signal (z-score),[24],-0.111
same,glycan array binding signal (z-score),[25],-0.159
same,glycan array binding signal (z-score),[26],-0.002
same,glycan array binding signal (z-score),[27],-0.001
same,glycan array binding signal (z-score),[28],-0.137
same,glycan array binding signal (z-score),[29],-0.191
same,glycan array binding signal (z-score),[30],-0.218
same,glycan array binding signal (z-score),[31],-0.218
same,glycan array binding signal (z-score),[32],-0.189
